Experimental data as given in ChEMBL document CHEMBL4888484, “Replenishing the malaria drug discovery pipeline: Screening and hit evaluation of the MMV Hit Generation Library 1 (HGL1) against asexual blood stage Plasmodium falciparum ,using a nano luciferase reporter read-out” (2022).
Out of some 150,000 compounds screened, about 540 (0.36%) showed an effect of 50% or more. Some of the results follow.

tested on: Plasmodium falciparum; assay: Primary screen in NF54 nanoGlo assay, in single point, at 2uM, 72h; a lower Z score goes with more inhibition; format: functional, Erythrocyte; details: timepoint 72 hour

Q: Which results are given for `COc1ccnc2c(NC(=O)N3CCCN(C)CC3)cccc12`?
A: % Inhibition: 1%; Z score: -0.08

Q: Which “% Inhibition” value does the source give for `Cc1cc(S(=O)(=O)N[C@@H](C)c2nncn2C(C)C)c(C)s1` here?
A: Its value is -11%.

Q: And the Z score?
A: Its Z score is 1.91.

Q: What does the source list for `Cn1cccc1C(=O)N1CCC2(CC1)c1nc[nH]c1CCN2C(=O)C1CCC1`?
A: % Inhibition: 14%; Z score: -2.5

Q: With `O=C(NCCc1ccncc1)c1cccc(S(=O)(=O)N2CC[C@@H](O)C2)c1` as the compound, how does the “% Inhibition” value read?
A: Its value is -9%.

Q: And the Z score?
A: Its Z score is 1.1.

Q: What does the source list for `C=CCn1cc(-c2cc(-c3[nH]c(C)c(C(=O)O)c3C)nc(N)c2C#N)cn1`?
A: % Inhibition: -1%; Z score: 0.18

Q: For `CC(C)Oc1cc(N(C)CCc2cn[nH]c2)nc(N)n1`, which “% Inhibition” value is on record?
A: Its value is -1%.

Q: What about the Z score of the same compound?
A: The Z score was 0.1.

Q: With `COc1ccc(C2CN(C(=O)c3ccc(C)cc3)CC2C(=O)NCc2ccccn2)c(OC)c1` (centres undefined) as the compound, how does the “% Inhibition” value read?
A: Its value is -13%.

Q: And the Z score?
A: The Z score was 1.87.

Q: How did the “% Inhibition” value turn out when `COc1ccccc1NC(=O)CN1CCC2(CC1)NC(=O)N(C)C2=O` was run?
A: The value was -9%.

Q: And the Z score?
A: Its Z score is 1.78.

Q: For `Cc1ccc2cc(CN3CCC(CNC(=O)c4cccc(C)n4)CC3)c(=O)[nH]c2c1`, which “% Inhibition” value is on record?
A: The value was -1%.

Q: And the Z score?
A: The Z score was 0.18.

Q: Which “% Inhibition” value does the source give for `COc1ccc([C@@H](NC(=O)COc2ccc(-c3ccccc3)cc2Cl)c2nccn2C)cc1` here?
A: Its value is 17%.

Q: What about the Z score of the same compound?
A: Its Z score is -1.48.

Q: What does the source list for `CC[C@H]1CCCCN1C(=O)c1cc2c(s1)CCS(=O)(=O)C2`?
A: % Inhibition: -4%; Z score: 0.62

Q: What does the source list for `CC(Cc1ccco1)NC(=O)C1CCS(=O)(=O)C1` (centres undefined)?
A: % Inhibition: 2%; Z score: -0.23

Q: With `Cc1cnn(CCNCC=Cc2ccccc2)c1` as the compound, how does the “% Inhibition” value read?
A: Its value is 0%.

Q: And the Z score?
A: The Z score was -0.06.

Q: For `COc1ccccc1OC1(C(=O)O)CCN(Cc2ccc(-c3cc[nH]n3)o2)CC1`, which “% Inhibition” value is on record?
A: The value was -13%.

Q: What about the Z score of the same compound?
A: Its Z score is 1.66.

Q: What does the source list for `Clc1cnn([C@H]2CCN(Cc3ccc(-c4ccn[nH]4)o3)C2)c1`?
A: % Inhibition: 3%; Z score: -0.42

Q: With `COc1ccc(-c2noc([C@H](C)O)c2C(=O)N2CCCN(C(C)=O)CC2)cc1OC` as the compound, how does the “% Inhibition” value read?
A: The value was 7%.

Q: And the Z score?
A: The Z score was -1.23.

Q: With `CCc1noc(C)c1C(=O)O[C@@H](C)C(=O)N1CC(=O)Nc2ccccc21` as the compound, how does the “% Inhibition” value read?
A: The value was -54%.

Q: What about the Z score of the same compound?
A: The Z score was 6.3.

Q: How did the “% Inhibition” value turn out when `Cc1cc(C(=O)NCc2ccccc2CN2CCOCC2)on1` was run?
A: The value was 0%.

Q: What about the Z score of the same compound?
A: Its Z score is 0.06.

Q: `CCC1CN(C(=O)C2CCCN2S(C)(=O)=O)CCO1` (centres undefined) was tested. Which “% Inhibition” value did it give?
A: Its value is -3%.

Q: And the Z score?
A: Its Z score is 0.47.

Q: For `CC(C)N(CCOc1cccc(S(C)(=O)=O)c1)C1CCC1`, which “% Inhibition” value is on record?
A: Its value is -12%.

Q: What about the Z score of the same compound?
A: Its Z score is 1.59.

Q: For `C=C(C)COc1ccccc1NC(=O)[C@H]1CCCC[C@H]1C(=O)NCCCC`, which “% Inhibition” value is on record?
A: Its value is 3%.

Q: What about the Z score of the same compound?
A: The Z score was -0.57.

Q: What does the source list for `O=C(NC(Cc1ccncc1)[C@H]1C[C@@H](O)C1)c1cccn1C1CC1` (some centres undefined)?
A: % Inhibition: -2%; Z score: 0.34

Q: Which results are given for `COc1cc(NC(=O)N2Cc3ncccc3N3CCC[C@H]3C2)n[nH]1`?
A: % Inhibition: 4%; Z score: -0.71

Q: What does the source list for `Cc1c(C(=O)N(Cc2ccccc2)CC2(O)CCCC2)cnn1C`?
A: % Inhibition: 0%; Z score: -0.07

Q: Which “% Inhibition” value does the source give for `N#Cc1ccc(N2CCOC3CCCC32)c(F)c1` (centres undefined) here?
A: Its value is 6%.

Q: What about the Z score of the same compound?
A: The Z score was -0.64.

Q: With `C=CCN(CC(=O)O)C(=O)c1cc(C)cc(F)c1` as the compound, how does the “% Inhibition” value read?
A: The value was -14%.

Q: And the Z score?
A: Its Z score is 1.69.

Q: `CC(NCc1ccc(Br)c2cccnc12)C1CCOC1` (centres undefined) was tested. Which “% Inhibition” value did it give?
A: The value was -5%.

Q: What about the Z score of the same compound?
A: The Z score was 0.52.

Q: For `CCN1CCO[C@H](C(=O)NCc2ccccc2CN2CCCCCC2)C1`, which “% Inhibition” value is on record?
A: The value was -4%.

Q: What about the Z score of the same compound?
A: Its Z score is 0.53.

Q: Which results are given for `COc1ccc(Cl)cc1-n1c(N)c(C(=O)N2CCOCC2)sc1=S`?
A: % Inhibition: -18%; Z score: 2.42

Q: `c1ccc(-c2nc(CN3CCC[C@H]3c3cccs3)co2)cc1` was tested. Which “% Inhibition” value did it give?
A: Its value is 1%.

Q: And the Z score?
A: The Z score was -0.21.

Q: `COc1ccc(NC(=O)C2CCN(S(=O)(=O)Cc3ccccc3)CC2)cc1` was tested. Which “% Inhibition” value did it give?
A: The value was -10%.

Q: What about the Z score of the same compound?
A: Its Z score is 1.97.

Q: For `CCC(C)(C)c1ccc(OCC(N)=O)cc1`, which “% Inhibition” value is on record?
A: Its value is -13%.

Q: What about the Z score of the same compound?
A: Its Z score is 1.78.

Q: Which “% Inhibition” value does the source give for `O=C(NCC1CCN(CC(=O)N2CCc3ccccc32)CC1)c1cnccn1` here?
A: Its value is -7%.

Q: What about the Z score of the same compound?
A: Its Z score is 0.87.

Q: Which “% Inhibition” value does the source give for `Cc1cccc(Cn2nc3c(S(=O)(=O)N4CCCCC4)cccn3c2=O)c1` here?
A: Its value is -3%.

Q: And the Z score?
A: The Z score was 0.43.

Q: For `CC(O)CC(C)NC(=O)C1COC(C)C1` (centres undefined), which “% Inhibition” value is on record?
A: Its value is -4%.

Q: And the Z score?
A: Its Z score is 0.59.

Q: `OCCOc1ccccc1CN1CCc2[nH]cnc2[C@H]1c1ccncc1` was tested. Which “% Inhibition” value did it give?
A: The value was -9%.

Q: And the Z score?
A: Its Z score is 1.22.

Q: Which results are given for `O=C1CC[C@@H]2CN(Cc3ccccc3C(F)(F)F)CC[C@@H]2N1Cc1ccc2c(c1)OCO2`?
A: % Inhibition: 8%; Z score: -0.97

Q: For `Cc1nc(CN2CCC[C@@](O)(CNC(=O)c3ccccc3F)CC2)co1`, which “% Inhibition” value is on record?
A: The value was -5%.

Q: What about the Z score of the same compound?
A: Its Z score is 0.64.

Q: With `CCc1ccc(CC)c(NC(=O)N(C)CC2(O)CCOCC2)c1` as the compound, how does the “% Inhibition” value read?
A: Its value is -9%.

Q: And the Z score?
A: Its Z score is 0.9.

Q: With `CC(C)CS(=O)(=O)CC(=O)N1CCC2CCCC21` (centres undefined) as the compound, how does the “% Inhibition” value read?
A: Its value is -7%.

Q: What about the Z score of the same compound?
A: Its Z score is 0.93.

Q: With `CC(=O)Nc1ccc(-c2sc(-c3ccc(NC(C)=O)cc3)c(-c3ccccc3)c2-c2ccccc2)cc1` as the compound, how does the “% Inhibition” value read?
A: The value was -8%.

Q: What about the Z score of the same compound?
A: The Z score was 1.18.

Q: Which results are given for `CC(=O)N[C@@H](C)C(=O)Nc1nc2ccccc2n1C1CCCC1`?
A: % Inhibition: -8%; Z score: 0.85
